Data: PubChem BioAssay AID504339 (National Center for Advancing Translational Sciences (NCATS), 2011)
Several values for one entry are separate records, joined by “and”; a condition that tells them apart may be missing. Equal values may be shown once. The campaign covered roughly 390,000 compounds. About 17,000 (4.4%) were called active. Inconclusive means that the source gave no clear call. Such entries were picked first, then a sample of the others. The call rests on the fitted dose curve; in most records, active means well fitted inhibition curve with a large enough effect; inconclusive means small, poorly fitted or top-dose-only effect; inactive means no such curve, though single readings can be large or run the other way. Potencies of inconclusive entries are doubtful fits and often do not repeat.

target: Lysine-specific demethylase 4A (Homo sapiens) (UniProt O75164); experiment: qHTS Assay for Inhibitors of JMJD2A-Tudor Domain; conditions: AlphaScreen JMJD2A-Tudor / H3K4me3 peptide binding; activity change, negative = inhibition: at 114 µM (top of the series); further: nearly all actives have a fitted effect of over 50% in size
On the % scale 0 is the no-effect control and ±100 the full control effect; potency means the concentration at half of the fitted maximal effect; tags describe the fitted curve by direction and shape.

Chain of UniProt O75164 (O75164 whole entry, looked up, the tested form may be a part): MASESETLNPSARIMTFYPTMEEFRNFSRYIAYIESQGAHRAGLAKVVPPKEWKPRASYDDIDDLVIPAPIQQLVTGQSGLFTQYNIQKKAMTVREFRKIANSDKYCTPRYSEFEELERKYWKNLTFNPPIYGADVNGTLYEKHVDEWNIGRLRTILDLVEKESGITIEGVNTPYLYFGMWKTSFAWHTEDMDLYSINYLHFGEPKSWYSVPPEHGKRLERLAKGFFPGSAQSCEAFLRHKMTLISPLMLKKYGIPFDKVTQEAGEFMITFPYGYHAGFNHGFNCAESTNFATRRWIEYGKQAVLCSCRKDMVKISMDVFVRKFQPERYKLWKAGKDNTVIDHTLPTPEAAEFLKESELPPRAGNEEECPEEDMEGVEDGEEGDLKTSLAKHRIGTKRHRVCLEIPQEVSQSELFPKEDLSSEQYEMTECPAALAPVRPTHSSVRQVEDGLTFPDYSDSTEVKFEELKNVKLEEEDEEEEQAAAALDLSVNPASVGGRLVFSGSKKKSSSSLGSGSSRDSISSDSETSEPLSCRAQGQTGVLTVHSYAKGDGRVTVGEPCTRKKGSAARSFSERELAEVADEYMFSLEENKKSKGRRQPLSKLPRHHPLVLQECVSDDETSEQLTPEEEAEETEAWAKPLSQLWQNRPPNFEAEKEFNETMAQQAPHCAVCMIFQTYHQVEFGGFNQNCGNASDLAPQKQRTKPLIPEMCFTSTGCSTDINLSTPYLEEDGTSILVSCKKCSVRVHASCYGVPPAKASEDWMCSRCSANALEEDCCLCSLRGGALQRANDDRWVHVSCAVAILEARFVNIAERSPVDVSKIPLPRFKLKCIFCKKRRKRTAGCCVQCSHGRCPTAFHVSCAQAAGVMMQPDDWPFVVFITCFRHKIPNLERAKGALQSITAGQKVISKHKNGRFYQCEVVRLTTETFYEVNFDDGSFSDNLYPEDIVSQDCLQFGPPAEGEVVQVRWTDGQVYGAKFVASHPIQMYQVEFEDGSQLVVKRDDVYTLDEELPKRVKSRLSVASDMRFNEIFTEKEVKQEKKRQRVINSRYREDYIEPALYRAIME

Structure (SMILES)	Potency	activity change, negative = inhibition
Oc1cc2c(cc1CN1CCN(c3ccccc3)CC1)CCC2	inconclusive: 11.2 µM [inhibitor, full curve, poor fit]	
S=c1[nH]c2cc(Br)cnc2[nH]1	active: 20 µM	
CCOC(=O)C(O)(c1ccc(N(CC)C(=O)OC)cc1)C(F)(F)F (stereo not drawn)		inactive: -2.99%
CC1(C)[C@H](C(=O)O)N2C(=O)C[C@H]2S1(=O)=O	inconclusive: 100 µM [inhibitor, single point]	
O=C(N/N=C/c1c(O)n(Cc2ccc(F)cc2)c(=O)[nH]c1=O)c1ccccc1O	inconclusive: 63.1 µM [inhibitor, partial curve, poor fit]	
Cn1cccc1/C=C1\C(=O)NC(=O)N(Cc2ccccc2Cl)C1=O	inconclusive: 89.1 µM [inhibitor, partial curve, poor fit]	
O=[N+]([O-])c1ccc(N2CCCCC2)c2ncccc12	inconclusive: 15.8 µM [inhibitor, partial curve]	
CN(C)[C@@H]1C(=O)C(C(N)=O)=C(O)[C@@]2(O)C(=O)C3=C(O)c4c(O)ccc(Cl)c4[C@@](C)(O)[C@H]3C[C@@H]12	active: 56.2 µM	
O=C1NC(=O)C(=Cc2ccc(-c3cc(Cl)ccc3[N+](=O)[O-])o2)C(=O)N1	active: 25.1 µM	
COc1cccc(CCNCc2c(F)cccc2F)c1	inconclusive: 0.631 µM [inhibitor, partial curve, poor fit]	
Cc1ccc(C)c(N2CCN(C(=O)C3CCN(Cc4nc(-c5cccc(Cl)c5)oc4C)CC3)CC2)c1	active: 39.8 µM	
CCOc1cc(N2CCOCC2)c(OCC)cc1NC(=O)C1=NN(c2cccc(C)c2)C(=O)CC1	active: 50.1 µM	
O=P(O)(O)/C=C(\Cl)c1ccccc1	inconclusive: 50.1 µM [inhibitor, partial curve]	
COc1cccc(N2CCN(Cc3ccc(Cl)cc3)CC2)c1	inconclusive: 56.2 µM [inhibitor, partial curve]	
Cc1cc(C)cc(N2C(=O)/C(=C\c3ccc(N4CCN(C)CC4)o3)C(=O)NC2=S)c1		inactive: -32.4%
Cn1c(O)c(/C=N/Nc2ccccc2)c(=O)n(C)c1=O	inconclusive: 22.4 µM [inhibitor, partial curve]	
CC(=O)N1CCN(c2ccc(OC[C@H]3CO[C@](Cn4ccnc4)(c4ccc(Cl)cc4Cl)O3)cc2)CC1	active: 35.5 µM and active: 25.1 µM	
CCOC(=O)C1=C(NC(=S)NC(=O)c2ccccc2)c2ccccc2CC12CCCC2	inconclusive: 25.1 µM [inhibitor, full curve, poor fit]	
